From patent publication US20140286898A1 (Amgen, published 2014) come the findings set out here.

In this test the target is T1, CD25 (IL-2Rα) on the surface of activated T cells (UniProt P01589 22-272, limits assumed).
T1 construct: whole, on cells; also called cell surface CD25
T1 sequence (looked up): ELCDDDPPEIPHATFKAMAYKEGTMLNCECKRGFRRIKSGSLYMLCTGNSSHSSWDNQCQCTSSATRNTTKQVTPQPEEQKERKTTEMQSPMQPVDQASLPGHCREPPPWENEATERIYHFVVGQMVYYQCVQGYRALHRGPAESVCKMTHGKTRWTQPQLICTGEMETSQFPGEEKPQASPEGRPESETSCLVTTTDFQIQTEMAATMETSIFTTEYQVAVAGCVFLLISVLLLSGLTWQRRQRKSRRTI
The experiment in a line: flow cytometry; activated T cells pulsed with 400 pM Fc.IL-2, stained with anti-human IgG-FITC and anti-CD25-APC. Background: In flow cytometry, cells or beads pass a laser one at a time.

B1: Fc.N88D IgG1Fc(N297G_delK)::G4S::huIL-2(N88D, C125A) (Fc fusion)
chain: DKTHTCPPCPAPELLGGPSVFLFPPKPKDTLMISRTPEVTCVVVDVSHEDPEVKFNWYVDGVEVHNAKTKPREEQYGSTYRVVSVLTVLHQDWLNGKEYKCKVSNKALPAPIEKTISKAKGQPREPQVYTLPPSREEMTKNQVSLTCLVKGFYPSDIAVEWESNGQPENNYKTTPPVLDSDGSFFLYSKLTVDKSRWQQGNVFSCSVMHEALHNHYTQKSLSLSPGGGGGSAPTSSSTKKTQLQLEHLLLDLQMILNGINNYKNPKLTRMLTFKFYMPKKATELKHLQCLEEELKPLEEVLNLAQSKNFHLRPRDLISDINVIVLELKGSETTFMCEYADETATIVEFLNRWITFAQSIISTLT
notes: Fc homodimer bearing two IL-2 mutein domains
For the molecule B1, the binding result was “binds”.

B2: Fc.V91K IgG1Fc(N297G_delK)::G4S::huIL-2(V91K, C125A) (Fc fusion)
chain: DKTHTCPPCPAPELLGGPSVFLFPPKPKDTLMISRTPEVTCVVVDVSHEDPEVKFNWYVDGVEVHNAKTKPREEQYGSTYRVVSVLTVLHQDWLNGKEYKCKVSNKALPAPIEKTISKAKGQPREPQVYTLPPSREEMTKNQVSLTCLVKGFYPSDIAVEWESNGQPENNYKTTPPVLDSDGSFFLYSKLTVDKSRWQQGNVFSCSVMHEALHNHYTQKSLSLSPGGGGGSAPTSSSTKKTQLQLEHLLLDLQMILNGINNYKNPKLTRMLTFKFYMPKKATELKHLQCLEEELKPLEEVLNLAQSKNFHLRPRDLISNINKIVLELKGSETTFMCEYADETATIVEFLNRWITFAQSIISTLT
notes: as for B1
For B2, the binding result is reported as “binds”.
